# Experimental data taken from publication PMC5700166.
# This is a selection; strong and weak results do not stand in their true shares. The list includes weakly bound sequences.
# Target: T1, GST-Aq-NF-kB (UniProt A9Y5G7)
# T1 sequence: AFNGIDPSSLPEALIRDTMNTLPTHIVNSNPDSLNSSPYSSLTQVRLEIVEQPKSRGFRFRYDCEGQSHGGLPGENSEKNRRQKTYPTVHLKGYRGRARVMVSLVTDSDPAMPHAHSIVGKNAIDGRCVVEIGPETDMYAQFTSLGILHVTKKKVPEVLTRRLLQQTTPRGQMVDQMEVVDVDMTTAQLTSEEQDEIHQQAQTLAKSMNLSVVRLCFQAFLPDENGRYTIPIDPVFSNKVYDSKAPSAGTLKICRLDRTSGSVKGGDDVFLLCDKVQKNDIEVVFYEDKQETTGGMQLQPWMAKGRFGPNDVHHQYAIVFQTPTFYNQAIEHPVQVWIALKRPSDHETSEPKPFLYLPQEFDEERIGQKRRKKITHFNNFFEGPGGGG
# Assay: protein-binding microarray (PBM)
# Conditions: PBM: ~300 nM protein, 6 mM HEPES pH 7.8, 80 mM KCl, 0.5 mM EDTA, 0.5 mM EGTA, 6% glycerol, 35 ng/ul poly-dIdC, 1% milk, 1 h, room temperature; Ap Aiptasia and Nv Nematostella (sea anemones) / Co Capsaspora / Aq Amphimedon (sponge) / Dm Drosophila / Hu human; RHD is the Rel homology domain; high values mean tight binding; most listed sequences are background and not binding sites; double strand, one strand shown
row,Sequence,binding signal [z-score]
1,CCGATTAACATCACGATAGCTATTGATGTTAATCGGGTCTTGATTCGCTTGACGCTGCTG,-0.505
2,CCGATTAACATCACGTACTACAATGATGTTAATCGGGTCTTGATTCGCTTGACGCTGCTG,-0.177
3,CCGATTAACATCAGATTCTCGTGTGATGTTAATCGGGTCTTGATTCGCTTGACGCTGCTG,-0.348
4,CCGATTAACATCAGAGCGGGTTTTGATGTTAATCGGGTCTTGATTCGCTTGACGCTGCTG,0.4
5,CCGATTAACATCAAGTTGTACAATGATGTTAATCGGGTCTTGATTCGCTTGACGCTGCTG,-0.257
6,CCGATTAACATCAGTTGCTCTCATGATGTTAATCGGGTCTTGATTCGCTTGACGCTGCTG,-0.394
7,CCGATTAACATCAGAAAATTTCATGATGTTAATCGGGTCTTGATTCGCTTGACGCTGCTG,0.226
8,CCGATTAACATCATTACGCCACGTGATGTTAATCGGGTCTTGATTCGCTTGACGCTGCTG,-0.455
9,CCGATTAACATCATACTCCTTGATGATGTTAATCGGGTCTTGATTCGCTTGACGCTGCTG,-0.145
10,CCGATTAACATCATCTCGACCATTGATGTTAATCGGGTCTTGATTCGCTTGACGCTGCTG,-0.629
11,CCGATTAACATCAAAATTCCTACTGATGTTAATCGGGTCTTGATTCGCTTGACGCTGCTG,0.353
12,CCGATTAACATCAGCGCAGCGGCTGATGTTAATCGGGTCTTGATTCGCTTGACGCTGCTG,-0.749
13,CCGATTAACATCATACTAGTTCCTGATGTTAATCGGGTCTTGATTCGCTTGACGCTGCTG,-0.0916
14,CCGATTAACATCATTAAGAAAGCTGATGTTAATCGGGTCTTGATTCGCTTGACGCTGCTG,-0.412
15,CCGATTAACATCAGGGTTGCAACTGATGTTAATCGGGTCTTGATTCGCTTGACGCTGCTG,-0.51
16,CCGATTAACATCACCATCCAACTTGATGTTAATCGGGTCTTGATTCGCTTGACGCTGCTG,-0.0376
17,CCGATTAACATCAAGCGGTATTATGATGTTAATCGGGTCTTGATTCGCTTGACGCTGCTG,0.242
18,CCGATTAACATCACGGGTCGGATTGATGTTAATCGGGTCTTGATTCGCTTGACGCTGCTG,0.115
19,CCGATTAACATCACCTGAACTATTGATGTTAATCGGGTCTTGATTCGCTTGACGCTGCTG,0.394
20,CCGATTAACATCAATTGACGATTTGATGTTAATCGGGTCTTGATTCGCTTGACGCTGCTG,-0.487

row,Sequence,binding signal [z-score]
1,CCGATTAACATCACGGATTCTCCTGATGTTAATCGGGTCTTGATTCGCTTGACGCTGCTG,0.947
2,CCGATTAACATCAGCGAATTTCCTGATGTTAATCGGGTCTTGATTCGCTTGACGCTGCTG,0.0909
3,CCGATTAACATCAAATAGGCTCATGATGTTAATCGGGTCTTGATTCGCTTGACGCTGCTG,-0.729
4,CCGATTAACATCACATACCTACCTGATGTTAATCGGGTCTTGATTCGCTTGACGCTGCTG,0.0105
5,CCGATTAACATCAATTCATCAGTTGATGTTAATCGGGTCTTGATTCGCTTGACGCTGCTG,-0.477
6,CCGATTAACATCAGCAACTGGCCTGATGTTAATCGGGTCTTGATTCGCTTGACGCTGCTG,-0.721
7,CCGATTAACATCATCGCGCCTTCTGATGTTAATCGGGTCTTGATTCGCTTGACGCTGCTG,-0.449
8,CCGATTAACATCAAGACCACTGTTGATGTTAATCGGGTCTTGATTCGCTTGACGCTGCTG,-0.357
9,CCGATTAACATCAAGGCAAAGGCTGATGTTAATCGGGTCTTGATTCGCTTGACGCTGCTG,-0.745
10,CCGATTAACATCAGCCATGGTGATGATGTTAATCGGGTCTTGATTCGCTTGACGCTGCTG,-0.147
11,CCGATTAACATCAGCTAAGCATGTGATGTTAATCGGGTCTTGATTCGCTTGACGCTGCTG,-0.213
12,CCGATTAACATCAAAAAATCCCCTGATGTTAATCGGGTCTTGATTCGCTTGACGCTGCTG,9.56
13,CCGATTAACATCACGTAACAATATGATGTTAATCGGGTCTTGATTCGCTTGACGCTGCTG,-0.258
14,CCGATTAACATCACAGAAATTCCTGATGTTAATCGGGTCTTGATTCGCTTGACGCTGCTG,0.835
15,CCGATTAACATCACGCGATCATATGATGTTAATCGGGTCTTGATTCGCTTGACGCTGCTG,-0.37
16,CCGATTAACATCACGGGCATTCCTGATGTTAATCGGGTCTTGATTCGCTTGACGCTGCTG,3.21
17,CCGATTAACATCATGCAAGAACTTGATGTTAATCGGGTCTTGATTCGCTTGACGCTGCTG,-0.405
18,CCGATTAACATCAGCTCTGTACATGATGTTAATCGGGTCTTGATTCGCTTGACGCTGCTG,-0.557
19,CCGATTAACATCAGTTCACGCCGTGATGTTAATCGGGTCTTGATTCGCTTGACGCTGCTG,-0.386
